According to the supplement of paper PMC8674133:

B1: C2395 (protein)
chain 1: EVQLVESGGGLIQPGGSLRLSCAASGFTVSINYMTWVRQAPGKGLEWVSVIYSGGSTYYADSVKGRFTISRDNSKNTLYLQMNSLRAEDTAVYYCARGYGDLYFDYWGQGTLVTVSS
chain 2: DIQLTQSPSFLSASVGDRVTITCRASQGISSYLAWYQQKPGKAPKLLIYAASTLQSGVPSRFSGSGSGTEFTLTISSLQPEDFATYYCQHLRTFGQGTKVEIK
B2: C2148 (protein)
chain 1: EVQLVESGGGLIQPGGSLRLSCVASGFTVSSNYMSWVRQAPGKGLEWVSLIYSGGSTFYADSVKGRFTISRDNSKNTLYLQMNSLRAEDTAVYYCARDLSYYGMDVWGQGTTVTVSS
chain 2: DIQLTQSPSFLSASVGDRVTITCRASQGISSYLAWYQQKPGKAPKLLIYAASTLQSGVPSRFSGSGSGTEFTLTISSLQPEDFATYYCQQLNSYLFTFGPGTKVDIK
B3: C2322 (protein)
chain 1: EVQLLESGGTLVQPGGSLRLSCVASGFTFDTYAMSWVRRAPGRGLEWVATFSGSGGKTYYADSVKGRFRISRDNSKNTLYLQMNSLRVEDTAVYYCARDQFRKKYDYWSAYYTHNYSGIGYFEEWGQGTLVTVSS
chain 2: IRMTQSPSSLSASVGDRVTITCQASQDISNYLNWYQQKPGKAPKLLIYDASNLETGVPSRFSGSGSGTDFTFTISSLQPEDIATYYCQQYDNLPPTFGQGTKLEIK
B4: C2324 (protein)
chain 1: EVQLVESGGGLIQPGGSLRLSCAASGFTVSSNYMSWVRQAPGKGLEWVSVIYSGGSTYYADSVKGRFTISRDNSKNTLYLQMNSLRAEDTAVYYCARHPLPVSHYYYGMDVWGQGTTVTVSS
chain 2: IRMTQSPSSLSASVGDRVTITCQASQDISNYLNWYQQKPGKAPKLLIYDASNLETGVPSRFSGSGSGTDFTFTISSLQPEDIATYYCQQYDNLPVTFGGGTKVEIK
B5: C2008 (protein)
chain 1: EVQLVESGGGLVQPGRSLRLSCAASGFTFDDYAMHWVRQAPGKGLEWVSGISWNSGSIGYADSVKGRFTISRDNAKNSLYLQMNSLRAEDTALYYCAKDAGKGQWLVDLYFDYWGQGTLVTVSS
chain 2: SYELTQPPSVSVAPGQTARITCGGNNIGSKSVHWYQQKPGQAPVLVVYDDSDRPSGIPERFSGSNSGNTATLTISRVEAGDEADYYCQVWDSSSDRGVFGGGTKLTVL
B6: C2244 (protein)
chain 1: EVQLVESGGGLVQPGGSLRLSCAASGFTVSSNYMTWVRQAPGKGLEWVSVIYSGGSTYYADSVKGRFTISRHNSKNTLYLQMNSLRAEDTAVYYCARDLEERGAFDIWGQGTMVTVSS
chain 2: DIQMTQSPSSLSASVGDRVTITCRASQGISSWLAWYQQKPGKAPKLLIYVASSLQSAVPSRFSGSGSGTDFTLTISSLQPEDFATYYCQQAHSFPLYTFGQGTKLEIK
B7: C2033 (protein)
chain 1: EVQLVESGGGLIQPGGSLRLSCAASGFTVSSNYMSWVRQAPGKGLEWVSLIYSGGSTYYADSVKGRFTISRDNSKNTLYLQMNSLRAEDTAVYYCARDLELKGAFDIWGQGTMVTVSS
chain 2: DIQLTQSPSFLSASVGDRVTITCRASQGISSYLAWYQQKPGKAPKLLIYAASTLQSGVPSRFSGSGSGTEFTLTISSLQPEDFATYYCQQLNSYSPWTFGQGTKVEIK
B8: C2035 (protein)
chain 1: VQLVESGGGVVQPGRSLRLSCAASGFTFSSYGMHWVRQAPGKGLEWVAVISYDGSNKYYADSVKGRFTISRDNSKNTLYLQMNSLRAEDTAVYYCAKVGGPYCSGGSCYGGYFDYWGQGTLVTVSS
chain 2: IRMTQSPSSLSASVGDRVTITCQASQDISNYLNWYQQKPGKAPKLLIYDASNLETGVPSRFSGSGSGTDFTFTISSLQPEDIATYYCQQYDNLPGFGPGTKVEIK
B9: C2325 (protein)
chain 1: EVQLVESGGGVIQPGGSLRLSCAASGLTVSSNYMTWVRQAPGKGLEWVSVIYSGGSTYYADSVKGRCTISRDNSKNTLYLQMNSLRAEDTAVYYCARYMGDGMDVWGQGTTVTVSS
chain 2: DIQLTQSPSSVSASVGDTVTITCRASQGIGSWLAWYQQKPGKAPKLLIYAASSLQSGVPSRFSGSGSGTDFTLTISSLQPEDFATYYCQEANSFPPITFGQGTRLEIK
B10: C2006 (protein)
chain 1: EVQLVESGGGLIQPGGSLRLSCAASGFTVSSNYMSWVRQAPGKGLEWVSVIYSGGSTFYADSVKGRFTISRDNSKNTLYLQMNSLRAEDTAVYYCARELDTIFDYWGQGTLVTVSS
chain 2: DIQLTQSPSFLSASVGDRVTITCRASQGISSYLAWYQQKPGKAPKLLIYAASTLQSGVPSRFSGSGSGTEFTLTISSLQPEDFATYYCQQLNSYPPYTFGQGTKLEIK
B11: C2323 (protein)
chain 1: QVQLVQSGAEVKKPGSSVKVSCKASGGTFSNYAIRWVRQAPGQGLEWMGGIIPIFGTANYAQKFQGRVTITADESTSTAYMELSSLRSEDTAVYYCAREPGLHTGHLDHWGQGTLVTVSS
chain 2: IRMTQSPSSLSASVGDRVNITCQASQDISNYVNWYQQKPGKAPKLLIYDASNLETGVPSRFSGSGSGTDFTFTISSLQPEDIATYYCQQYDNVPSLTFGGGTKVEIK
B12: C2002 (protein)
chain 1: QVQLQQWGAGLLKPSETLSRTCAVYGGSFSGYYWSWIRQSPGKGLEWIGEINHRGSTNYNPSLKSRVTISVDTSKNQLSLELRSVTAADTAVYYCARSPGWTTVTRPFDYWGQGALVTVSS
chain 2: EIVLTQSPGTLSLSPGERATLSCRASQSVSNSYLAWYQQKPGQAPRLLVLGASNRATGIPDRFSGSGSGTDFTLTISRLEPEDFAVFYCQQYSSSPVTFGQGTRLEIK
B13: C2011 (protein)
chain 1: QVQLQESGPGLVKPSETLSLTCTVSGGSISSYYWSWIRQPPGKGLEWIGYIYYSGSTNYNPSLKSRVTISVDTSKNQFSLKLSSVTAADTAVYYCASYYYDSSGYYYGMDVWGQGTTVTVSS
chain 2: DIQLTQSPSFLSASVGDRVTITCRASQGISSYLAWYQQKPGKAPKLLIYAASTLQSGVPSRFSGSGSGTEFTLTISSLQPEDFATYYCQQLNSYLTFGQGTRLEIK
B14: C2327 (protein)
chain 1: VQLVESGPGLVKPSETLSLTCTVSAGSITNYYWSWIRQPPGKGLEWIGYIYYSGSTNYNPSLKSRVTISVDTSKNQFSLKLSSVTAADTAVYYCARLAPFFYDSSGYYSRSFDYWGQGTLVTVSS
chain 2: QSALTQPASVSGSPGQSITISCTGTSSDVGSYNLVSWYQQHPGKAPKLMIYEGSKRPSGVSNRFSGSKSGNTASLTISGLQAEDEADYYCCSYAGSVLFGGGTKLTVL
B15: C2153 (protein)
chain 1: QVQLQQWGAGLLKPSETLSLTCAVFGGSFSDYYWSWIRQPPGKGLEWIGEISHSGTTNCKPSLKSRVTISVDTSKNQFSLRLNSVTAADTAVYYCARATMADIAVATPRRAFDVWGQGTMVTVSS
chain 2: DIVMTQSPGSLAVSLGERATINCKSSQSVLYSSNNKNYLAWYQQKAGQPPKLLIYWASTRESGVPDRFSGSGSGTDFTLTISSLQAEDVAVYYCQQYYSTSITFGQGTRLEIK
B16: C2001 (protein)
chain 1: QVQLVQSGAEVKKPGSSVKVSCQASGGTFSNYGLSWVRQSPGQGLEWMGGIIPLFRTGNYAQKFQGRVTITADRSTSTVYMQLSGLTSEDTAVYFCARDLSPCLGGDCDLFGGGRKPHWYFGLWGRGTLVTVSS
chain 2: IVLTQSPGTLSLSPGERVTLSCRASQSVSSHLAWYQQKPGQAPRLLIHGASSRATGIPDRFSGSGSGTDFTLTISRLGPEDFAVYYCQQYGTSPTFGGGTKVEIK

target: SARS-CoV-2 Wuhan-Hu-1 spike pseudovirus; assay: pseudovirus neutralization IC50; higher = weaker neutralization
Procedure: (§1)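 Single-round luciferase reporter pseudovirus mixed with antibody dilutions and put on 293T-ACE2 cells for 48 h; signal relative to no-antibody wells, four-parameter fit.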

Row | Binder | pseudovirus neutralization IC50 [µg/mL]
1 | B1 | 0.0226
2 | B2 | 0.0335
3 | B3 | > 1
4 | B4 | > 1
5 | B5 | > 1
6 | B6 | 0.0109
7 | B7 | 0.0237
8 | B8 | > 1
9 | B9 | 0.0168
10 | B10 | 0.0942
11 | B11 | > 1
12 | B12 | > 1
13 | B13 | > 1
14 | B14 | > 1
15 | B15 | > 1
16 | B16 | > 1

target: SARS-CoV-2 Wuhan-Hu-1 spike pseudovirus; assay: pseudovirus neutralization IC90; higher = weaker neutralization
Procedure: as §1

Row | Binder | pseudovirus neutralization IC90 [µg/mL]
17 | B1 | 0.216
18 | B2 | 0.451
19 | B3 | > 1
20 | B4 | > 1
21 | B5 | > 1
22 | B6 | 0.0809
23 | B7 | 0.18
24 | B8 | > 1
25 | B9 | 0.0823
26 | B10 | 0.886
27 | B11 | > 1
28 | B12 | > 1
29 | B13 | > 1
30 | B14 | > 1
31 | B15 | > 1
32 | B16 | > 1

target: SARS-CoV-2 Wuhan-Hu-1 spike receptor-binding domain; assay: ELISA binding EC50; higher = weaker binding; ELISA of recombinant human antibody on coated antigen, from 10 µg/ml in fourfold dilutions; four-parameter fit.

Row | Binder | ELISA binding EC50 [µg/mL]
33 | B1 | 0.00205
34 | B2 | 0.00199
35 | B3 | > 10
36 | B4 | 0.0101
37 | B5 | 0.00364
38 | B6 | 0.00271
39 | B7 | 0.00165
40 | B8 | 0.00234
41 | B9 | 0.00135
42 | B10 | 0.00327
43 | B11 | 0.00266
44 | B12 | 0.0914
45 | B13 | 0.00362
46 | B14 | 0.00529
47 | B15 | > 10
48 | B16 | 0.00523

Recombinant human monoclonal antibodies (heavy:light variable regions). ELISA EC50 on the named antigen, from 10 µg/ml down; IC50 / IC90 against spike pseudovirus on 293T-ACE2 cells, 48 h; lower = stronger. Calls: IC50 above 1,000 ng/ml = non-neutralizing; EC50 above 2,000 ng/ml = non-binder. The source prints 1000 for neutralization that was not reached; it is given as >1000 ng/ml. A few antibodies were first reported in earlier work of the same group.
